The structures appear in SMILES notation. Out of some 310,000 compounds screened, about 2,200 (0.71%) showed an effect of 50% or more. Effects have a minus sign here. The list shows a part of the results.

The experiment deals with human ether-à-go-go-related gene (hERG) potassium channel (human, UniProt Q12809). Kind of experiment: primary screen, population patch clamp on CHO cells stably expressing hERG.
Sequence of human ether-à-go-go-related gene (hERG) potassium channel (Q12809 whole entry, looked up): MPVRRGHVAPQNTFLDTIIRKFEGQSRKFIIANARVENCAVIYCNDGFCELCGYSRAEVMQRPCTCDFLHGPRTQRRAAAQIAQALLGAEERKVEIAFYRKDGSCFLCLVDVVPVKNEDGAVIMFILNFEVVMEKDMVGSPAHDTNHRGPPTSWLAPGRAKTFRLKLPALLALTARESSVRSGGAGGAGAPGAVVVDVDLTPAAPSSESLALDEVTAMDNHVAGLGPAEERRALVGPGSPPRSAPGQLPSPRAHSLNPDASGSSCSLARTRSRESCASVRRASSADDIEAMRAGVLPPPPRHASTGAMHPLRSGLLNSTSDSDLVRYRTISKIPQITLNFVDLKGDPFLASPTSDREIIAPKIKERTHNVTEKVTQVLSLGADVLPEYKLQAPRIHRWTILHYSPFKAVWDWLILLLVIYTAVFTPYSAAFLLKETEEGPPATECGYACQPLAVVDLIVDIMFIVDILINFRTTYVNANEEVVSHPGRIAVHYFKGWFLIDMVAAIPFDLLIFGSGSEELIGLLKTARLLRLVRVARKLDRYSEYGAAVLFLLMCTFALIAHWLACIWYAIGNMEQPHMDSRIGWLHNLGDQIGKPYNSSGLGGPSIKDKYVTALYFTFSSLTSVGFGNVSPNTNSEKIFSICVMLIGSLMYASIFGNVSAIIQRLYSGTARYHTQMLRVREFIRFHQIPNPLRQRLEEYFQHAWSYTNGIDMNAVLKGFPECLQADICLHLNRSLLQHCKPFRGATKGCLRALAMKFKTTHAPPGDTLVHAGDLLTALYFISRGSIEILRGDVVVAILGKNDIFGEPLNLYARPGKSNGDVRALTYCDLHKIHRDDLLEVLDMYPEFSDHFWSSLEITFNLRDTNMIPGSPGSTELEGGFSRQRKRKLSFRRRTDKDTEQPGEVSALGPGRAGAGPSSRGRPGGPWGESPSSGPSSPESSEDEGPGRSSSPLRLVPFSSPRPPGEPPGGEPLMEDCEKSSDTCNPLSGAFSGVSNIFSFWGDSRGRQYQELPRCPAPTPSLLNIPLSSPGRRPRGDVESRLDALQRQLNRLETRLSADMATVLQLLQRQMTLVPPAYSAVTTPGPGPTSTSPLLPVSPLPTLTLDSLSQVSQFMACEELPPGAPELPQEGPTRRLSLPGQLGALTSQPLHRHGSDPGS
Take `O=C(CNC(=S)N(CCCN1CCOCC1)Cc1cccs1)NCCN1CCOCC1`: the “hERG current change (%, negative = inhibition) at 1uM” value is 13.9%. In the case of `CCOC(=O)Cn1c(=O)n(Cc2ccc(C)cc2)c(=O)c2cccnc21`, the “hERG current change (%, negative = inhibition) at 1uM” value was found to be 7.97%. Next, `CCn1cc(/C=C/C(=O)c2ccc(O)cc2)c(C)n1`: 5.24%; `COc1cc(/C=C2\SC(=S)N(CC(=O)NC3=NCCS3)C2=O)cc(OC)c1OC`: 8.3%; `COCCN(C(=O)COC(=O)c1cc2c(s1)CCC2)c1c(N)n(Cc2ccccc2)c(=O)[nH]c1=O`: 4.11%. To `COC(=O)c1cc(OC)c(OC)cc1NC(=O)Nc1ccc(OC)cc1` belongs 7.13%. To `Cc1noc(C)c1S(=O)(=O)N1CCCC(C(=O)NCCc2ccc(Cl)cc2)C1` (centres unmarked) belongs 6.81%; to `COc1ccc2nc(-c3ccccc3)cc(C(=O)OCC(=O)N3CC(C)OC(C)C3)c2c1` (centres unmarked), 8.15%; to `COc1ccc(Oc2cccc(Cl)c2CNC(=O)c2ccccc2C(=O)O)cc1`, 10.3%. Regarding `COCC(=O)Nc1cccc2ccccc12`, the “hERG current change (%, negative = inhibition) at 1uM” value worked out at 11.5%. Next, `COc1ccc(C(CCO)NC(=O)c2cccs2)cc1OC` (centres unmarked): -2.3%; `COc1ccccc1C(CNC(=O)c1ccc(-c2ccccc2Cl)o1)N1CCCC1` (centres unmarked): -31.4%; `O=C(NCc1ccccn1)C12CC3CC(CC(C3)C1)C2`: 12.8%.

Regarding `Cc1ccc(NC(=S)NC(NC(=O)Cc2cccc3ccccc23)C(Cl)(Cl)Cl)cc1` (centres unmarked), the “hERG current change (%, negative = inhibition) at 1uM” value was 8.44%. To `COCCCNS(=O)(=O)c1ccc(OC)c(Cl)c1Cl` belongs 7.95%.

For the compound `Cc1ccc(-n2ncc(C#N)c2/N=C/N2CCOCC2)cc1`, the “hERG current change (%, negative = inhibition) at 1uM” value came out at 2.97%. For the compound `COc1ccc(CCn2c(NN=C3CCCC3)nc3c2c(=O)[nH]c(=O)n3C)cc1`, the “hERG current change (%, negative = inhibition) at 1uM” value was found to be 9.32%. For the compound `CCOC(=O)C1=C(CP(=O)(c2ccccc2)c2ccccc2)NC(=O)NC1c1ccc(OC)cc1` (centres unmarked), the “hERG current change (%, negative = inhibition) at 1uM” value was 0.262%. For `NNC(=S)NC1CC2CC1C1C=CCC21` (centres unmarked), the “hERG current change (%, negative = inhibition) at 1uM” value worked out at 13.6%. To `COc1ccccc1N1CC(C(=O)Nc2nnc(SC)s2)CC1=O` (centres unmarked) belongs 7.83%; to `CCN(CC)c1nc(N)c2c(N)n(-c3ccccc3C)c(=S)c(C#N)c2c1C#N`, 5.61%; to `CC1(C)CC(=O)c2sc(NC(=O)Cc3cccs3)nc2C1`, -0.543%. Next, `CC(NC(=O)CN1CCN(Cc2ccc(Cl)cc2)C1=O)c1ccc2c(c1)OCCO2` (centres unmarked): 4.39%; `COc1ccc(NC(=O)Nc2cnccn2)cc1`: 6.42%; `CCOC(=O)C1=C(C)NC(=O)NC1c1ccc2c(c1)OCO2` (centres unmarked): 2.46%. To `O=C(CCN1CCOCC1)NNC(=O)Nc1cccc(Cl)c1` belongs 8.06%; to `Br.CC(Sc1nnc(COc2ccc3ccccc3c2)n1C)C(=O)O` (centres unmarked), 7.69%; to `Cn1cccc1C(=O)NC(=O)COC(=O)C12CC3CC(CC(O)(C3)C1)C2`, 1.34%. Turning to `O=C(NC1CCCCCC1)c1cccnc1Sc1ccccc1`, the “hERG current change (%, negative = inhibition) at 1uM” value worked out at 5.32%. For `COc1ccccc1C(=O)Nc1ccc(NC(=O)c2ccco2)cn1`, the “hERG current change (%, negative = inhibition) at 1uM” value is reported as 12.7%. Turning to `COc1ccccc1N(CC(=O)Nc1ccccc1C)S(C)(=O)=O`, the “hERG current change (%, negative = inhibition) at 1uM” value was 12.1%.

With `NS(=O)(=O)c1ccc(CCNC(=O)CSc2nc3ccsc3c(=O)n2CC(=O)O)cc1`, the “hERG current change (%, negative = inhibition) at 1uM” value is given as 8.4%. On to `Cc1cc(OCc2ccc([N+](=O)[O-])cc2)c2c3c(c(=O)oc2c1)CCCC3`, for which the “hERG current change (%, negative = inhibition) at 1uM” value worked out at 9.71%. To `COC(=O)[C@@H]1C[C@@]2(O)[C@@H](O)[C@@H](O)[C@@H](O)C[C@H]2N1CC(c1ccccc1)c1ccccc1` belongs 13.1%. To `COc1ccc(CCNC2=CC(=O)CC(C)(C)C2)cc1` belongs -1.85%; to `COc1ccc(CNc2ncnc3sccc23)cc1OC`, 12%; to `CCCCCCCSc1nnc(-c2ccccc2N)c(=O)[nH]1`, 9.75%. Next, `COc1ccc(CCNc2nc(N3CCOCC3)nc(N3CCOCC3)n2)cc1OC`: 7.52%; `O=C(COc1ccccc1[N+](=O)[O-])NNC(=O)Nc1cccc2ccccc12`: 10.1%.

With `Clc1ccc(-c2nn3cnnc3s2)c(Cl)c1`, the “hERG current change (%, negative = inhibition) at 1uM” value was 1.87%.

For `COc1cc(C(=O)NCC(C)C)c([N+](=O)[O-])cc1OC`, the “hERG current change (%, negative = inhibition) at 1uM” value is on record as 13.4%. To `CN(C)/C=C/C(=O)c1ccc(N2CCN(c3ncc(C(F)(F)F)cc3Cl)CC2)cc1` belongs 5.67%.

Turning to `O=C1CCCC(=O)C1=C1SCCS1`, the “hERG current change (%, negative = inhibition) at 1uM” value was 4.92%. As to `CCOc1ccc(N(CC(=O)NCc2ccc(Cl)cc2)S(=O)(=O)c2c(C)noc2C)cc1`, the “hERG current change (%, negative = inhibition) at 1uM” value was 13.8%. To `COCCn1c(N)c(N(Cc2ccccc2)C(=O)CN2C(=O)NC(C)(c3ccccc3)C2=O)c(=O)[nH]c1=O` (centres unmarked) belongs 12.6%. To `Cc1ccccc1OCC(=O)NNC(=S)NC(=O)c1ccccc1[N+](=O)[O-]` belongs 5.05%; to `Cc1ccccc1C(=O)NNC(=O)CSc1nc2ccccc2c(=O)[nH]1`, 5.7%; to `COc1ccc(Cl)cc1N(CC(=O)N1CCCC1)S(=O)(=O)c1ccc(C)cc1`, 7.19%.

Turning to `C=CCn1c(=N)n(CC(O)c2ccco2)c2ccccc21.Cl` (centres unmarked), the “hERG current change (%, negative = inhibition) at 1uM” value is -10.2%.

Turning to `O=C(CSc1nc2ccccc2n1Cc1ccccc1)N/N=C/c1ccccc1C(=O)O`, the “hERG current change (%, negative = inhibition) at 1uM” value turned out to be 13.6%. Consider `O=C(NCCN1CCOCC1)c1ccc2c(c1)N(Cc1cccc(F)c1)C(=O)c1ccccc1S2`, for which the “hERG current change (%, negative = inhibition) at 1uM” value was 9.11%.

For the compound `Clc1ncnc2scc(-c3ccccc3)c12`, the “hERG current change (%, negative = inhibition) at 1uM” value is reported as 11%. Consider `CC(=O)c1cccc(NS(=O)(=O)c2ccc(NC(=O)N3CCCCC3)cc2)c1`, for which the “hERG current change (%, negative = inhibition) at 1uM” value is reported as 12.6%. To `CCOC(=O)c1c(NC(=S)NNS(=O)(=O)c2ccc(Br)cc2)sc2c1CCCCC2` belongs 19.1%; to `CCOc1ccc(NC(=O)Cc2nnc(SCC(=O)N3CCOCC3)n2C)cc1`, 7.73%. As for `CC1CCN(C(=O)CSc2nc3c(cnn3-c3ccccc3)c(=O)[nH]2)CC1`, the “hERG current change (%, negative = inhibition) at 1uM” value turned out to be 13.6%. `CCOc1cccc(NC(=O)/C(C#N)=C/c2cccnc2)c1`: the “hERG current change (%, negative = inhibition) at 1uM” value was 8.36%. On to `Cc1ccc(N2C(=O)CC(NNc3nc4ccccc4s3)C2=O)cc1C` (centres unmarked), for which the “hERG current change (%, negative = inhibition) at 1uM” value was -9.34%.

For `COc1ccc(C(=O)Nc2cccnc2)cc1`, the “hERG current change (%, negative = inhibition) at 1uM” value was 21%.

Turning to `CCOc1ccc(N2C(=O)C(Cl)=C(Nc3ccccc3O)C2=O)cc1`, the “hERG current change (%, negative = inhibition) at 1uM” value was -0.345%. Next, `C/C(=N\NC(=O)Cc1cccn1C)c1cccc2ccccc12`: 13.6%; `O=C(Nc1ccccc1Cl)OC1CN2CCC1CC2` (centres unmarked): 0.204%; `CCOC(=O)C1=C(c2ccccc2)NC(N)=NC1c1ccc(OCc2ccc(Cl)cc2)c(OC)c1` (centres unmarked): -3.4%. Next, `C(=N\Nc1ccccn1)/c1cccnc1`: 13.1%; `COc1ccc(CNC(=O)C/C(C)=N/NC(=O)c2ccccc2OC)cc1`: 10.8%. Take `Cn1c(=O)cc(SCC(=O)N2CCOCC2)c2ccc(Cl)cc21`: the “hERG current change (%, negative = inhibition) at 1uM” value is given as 13.8%.

On to `COc1ccc(C(=O)COC(=O)c2ccccc2C(=O)N(C)c2ccccc2)c(OC)c1`, for which the “hERG current change (%, negative = inhibition) at 1uM” value is recorded as 17.1%. To `CN(C)CCC(c1ccccc1)c1ccccn1.O=C(O)/C=C\C(=O)O` (centres unmarked) belongs 3.66%; to `COc1ccccc1C(=O)NC(=O)COC(=O)c1cnc(C)cn1`, 11.5%; to `COc1cccc(NC(=O)C(=O)NCCC2CCCCN2S(=O)(=O)c2ccccc2)c1` (centres unmarked), 14.3%. With `COc1cc([N+](=O)[O-])ccc1NC(=O)/C=C/C(=O)O`, the “hERG current change (%, negative = inhibition) at 1uM” value was determined as 12.5%. For `CCOC(=O)c1cnc(NCc2ccccc2)nc1C`, the “hERG current change (%, negative = inhibition) at 1uM” value is given as -7.53%. To `CCOc1ccc(-c2nc(C#N)c(NCC(C)C)o2)cc1` belongs 7.14%; to `CN(C)S(=O)(=O)c1ccc(Cl)c(NC(=O)COC(=O)[C@@H]2CCCN2C(=O)c2cccs2)c1`, 15.7%.

On to `O=C(CCNC(=O)c1ccc([N+](=O)[O-])cc1)N/N=C/c1ccc(F)cc1`, for which the “hERG current change (%, negative = inhibition) at 1uM” value is listed as -7.96%.

Turning to `CN(CC(=O)NCc1ccc(F)cc1)S(=O)(=O)c1ccc(Br)s1`, the “hERG current change (%, negative = inhibition) at 1uM” value amounted to 0.262%. To `O=C(CN1C(=O)NC2(CCCC2)C1=O)N1CCN(c2cccc(C(F)(F)F)c2)CC1` belongs 0.68%; to `CC(=O)Nc1cccc(N/C(N)=N/c2nc(C)cc(C)n2)c1`, 6.08%; to `COc1cccc(-c2nc(N)nc(SC)c2C#N)c1`, 3.76%. Turning to `O=C(C1CC(=O)N(c2ccc(F)cc2)C1)N1CCC(c2nc3ccccc3[nH]2)CC1` (centres unmarked), the “hERG current change (%, negative = inhibition) at 1uM” value is given as 3.42%. To `COc1ccc(NC(=O)c2ccccc2C)c(OC)c1` belongs 2.31%; to `COCCNC(=O)c1cccc(OC2CCN(Cc3ccccc3OC(F)F)CC2)c1`, 18.2%; to `O=C1/C(=C/c2cccs2)SC(=S)N1CC(=O)N1CCCCC1CCO` (centres unmarked), 20.1%. To `COC(=O)C(C(=O)NCC1CCCO1)C1CCCCCC1` (centres unmarked) belongs -13.5%. `O=S(=O)(c1ccccc1)C1Cc2ccccc2C1Cl` (centres unmarked): the “hERG current change (%, negative = inhibition) at 1uM” value is recorded as 17.2%. Next, `CC1=C(C(=O)OC(C)C)C(c2ccc(N(C)C)cc2)C2=C(CC(C)(C)CC2=O)N1` (centres unmarked): 3.16%.

On to `CCS(=O)(=O)c1ccc(C(=O)NC)c(Cl)c1Cl`, for which the “hERG current change (%, negative = inhibition) at 1uM” value stood at 8.25%. Next, `CCc1nnc(SCC(=O)Nc2nc(C)c(C(=O)N(C)C)s2)n1CC`: 4.49%; `Cc1cc(OCC(=O)N(C(C)C)C(C)C)ccc1Cl`: 8.19%.

The values are drawn from paper PMC4336329 (PLoS ONE, 2015).
